{"source": "PubChem BioAssay AID1347417", "about": "(National Center for Advancing Translational Sciences (NCATS), 2020)", "note": "In all, about 120,000 compounds went through this assay and about 5,300 (4.4%) were called active. The inconclusive results got no clear call from the source; some entries with a clear call stand among them for comparison. Calls come from the whole dose curve; as a rule, active = well fitted inhibition curve with a large enough effect; inconclusive = small, poorly fitted or top-dose-only effect; inactive = no such curve, though single readings can be large or run the other way. A potency beside an inconclusive call is a rough fit, not a confirmed value. Potency is the fitted concentration of half-maximal effect; tags give direction and shape of the fitted curve.", "data": [{"test": "qHTS Primary assay for Inhibitors of Plasmodium falciparum Dd2 growth in vitro; note: nearly all actives have a fitted effect of over 65% in size;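 for activity, negative = inhibition: plate controls were DMSO vehicle for no effect and reference drug for full effect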", "settings": "P. falciparum Dd2 growth, SYBR Green, 72 h; activity, negative = inhibition: at 28.9 µM (top of the series) unless noted; series mostly up to 28.9 µM", "in_short": "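Infected erythrocytes (Dd2, 0.3% parasitemia, 2.5% hematocrit final) are added to compound in RPMI-1640/Albumax II medium, grown 72 h at 37C in low oxygen, then lysed with saponin/Triton-X containing SYBR Green and read by fluorescence.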", "values": [{"smiles": "CCOc1ccc(N2C(=O)N(Cc3c(F)cccc3Cl)c3ccccc3S2(=O)=O)cc1", "Potency": "inconclusive: 10 µM [inhibitor, single point]"}, {"smiles": "Cc1cnc2c(c1SCC(=O)Nc1ccc(F)cc1F)c(=O)n(C)c(=O)n2C", "activity, negative = inhibition": "inconclusive: -56.7% [inhibitor] [at 0.594 µM]"}, {"smiles": "COc1ccc(N2CCN(c3ncncc3-c3nc(-c4ccccc4)no3)CC2)cc1", "activity, negative = inhibition": "inactive: -20.5%"}, {"smiles": "COc1ccc(N(Cc2cccs2)C(=O)COc2ccc(C(C)C)cc2)cc1", "Potency": "inconclusive: 11.2 µM [inhibitor, single point]"}, {"smiles": "COc1ccc(S(=O)(=O)c2c(Nc3ccc(C)cc3)sc(C(=O)c3ccc4c(c3)OCO4)c2N)cc1", "Potency": "inconclusive: 10 µM [inhibitor, single point]"}, {"smiles": "CCOc1ccc2nc(N3CCCC(C(=O)Nc4cccc(Cl)c4C)C3)sc2c1", "note": "(stereo not drawn)", "activity, negative = inhibition": "inconclusive: -49.9% [inhibitor] [at 5.79 µM]"}, {"smiles": "CCCCn1cc(S(=O)(=O)c2ccc(F)cc2)c(=O)c2ccccc21", "activity, negative = inhibition": "inactive: 18.1%"}, {"smiles": "COCC1CN(C)CC12CCN(Cc1cccc(OC)n1)CC2", "note": "(stereo not drawn)", "Potency": "inconclusive: 3.98 µM [inhibitor, partial curve, poor fit]"}, {"smiles": "Cc1ccc(S(=O)(=O)c2nc(-c3ccco3)oc2SCC(C)C)cc1", "activity, negative = inhibition": "inactive: 7%"}, {"smiles": "COc1cccc(Nc2cc(CN3CCC(C)(NC(C)=O)CC3)cc(OC)c2)c1", "outcome": "inactive [at 44.1 µM]"}, {"smiles": "COc1cc(OC)c(NC(=O)Cn2cnc3sc(C)c(S(=O)(=O)N4CCN(C)CC4)c3c2=O)cc1Cl", "Potency": "inconclusive: 7.94 µM [inhibitor, partial curve]"}, {"smiles": "COCCN(CC1CCN(Cc2ccccc2F)CC1)C(=O)c1cc[nH]c1C", "activity, negative = inhibition": "inactive: -11.8%"}, {"smiles": "COc1ccc2ncc3c(-c4ccc(C)c(C)c4)nn(CC(=O)NC4CCCCC4)c3c2c1", "Potency": "inconclusive: 1 µM [inhibitor, full curve]"}, {"smiles": "CCOC(=O)c1ccccc1NC(=O)Cn1c(N2CCc3ccccc3C2)nc(C)cc1=O", "activity, negative = inhibition": "inactive: 0.788%"}, {"smiles": "O=C(NCCc1ccccn1)c1ccc(Cn2ccn3nc4c(c3c2=O)CCCC4)cc1", "Potency": "inconclusive: 6.31 µM [inhibitor, partial curve, poor fit]"}, {"smiles": "O=C(CCCc1ccccc1)N1CCN(C2CCN(Cc3cccnc3)C2=O)CC1", "note": "(stereo not drawn)", "Potency": "inconclusive: 2.51 µM [inhibitor, full curve]"}, {"smiles": "Cc1cc2c(cc1C)NC(CC(=O)Nc1ccccc1SC(F)(F)F)C(=O)N2", "note": "(stereo not drawn)", "Potency": "inconclusive: 11.2 µM [inhibitor, single point]"}, {"smiles": "C[S+](=O)([O-])c1ccc(-c2nc(C(=O)N3CCOCC3)n3ccncc23)cc1", "Potency": "active: 7.94 µM"}, {"smiles": "CC(C)N1C[C@@H]2C[C@H]1C(=O)N(CC1CC1)c1ccccc1O2", "Potency": "active: 11.2 µM"}, {"smiles": "CC1=C[C@@H](CNC(=O)c2ccccc2)[C@H](C(C)C)C[C@H]1CC(=O)N1CCCC1", "Potency": "active: 11.2 µM"}, {"smiles": "CS(=O)(=O)N1CCC(OC2CCN(C(=O)Nc3ccccc3Cl)CC2)CC1", "activity, negative = inhibition": "inactive: 34.6%"}, {"smiles": "CCn1cc(CN2CC[C@@H]3CN(S(C)(=O)=O)[C@@H]3C2)c(C)n1", "activity, negative = inhibition": "inactive: 9.14%"}, {"smiles": "Cc1ccc(CN2C(=O)OC(c3cccc(NC(=O)c4ccc(C)cc4)c3)C2C(=O)NCC(C)C)cc1", "note": "(stereo not drawn)", "Potency": "inconclusive: 12.6 µM [inhibitor, single point]"}, {"smiles": "COc1ccc(C(=O)N[C@@H]2CN(c3ccccn3)C[C@H]2CN(C)C)c(OC)c1", "Potency": "inconclusive: 10 µM [inhibitor, partial curve, poor fit]"}, {"smiles": "CCN1CCC(CC(=O)N2CCCC3(C=Cc4ccccc4O3)CC2)CC1", "note": "(stereo not drawn)", "Potency": "inconclusive: 12.6 µM [inhibitor, partial curve, poor fit]"}, {"smiles": "Cn1ncc2c(-c3ccc([S+](C)(=O)[O-])cc3)cc(C(=O)NCc3ccc(F)cc3)nc21", "Potency": "inconclusive: 10 µM [inhibitor, single point]"}, {"smiles": "Cc1cnc(CCNC(=O)c2n[nH]c3ccccc23)n1C1CC1", "Potency": "inconclusive: 7.08 µM [inhibitor, partial curve, poor fit]"}, {"smiles": "CS(=O)(=O)N1CCC(OC2CCN(C(=O)Nc3cc(F)ccc3F)CC2)CC1", "Potency": "inconclusive: 0.251 µM [inhibitor, full curve, poor fit]"}, {"smiles": "Cc1cccc(N2CCN(CCCNC(=O)c3nnc(Cc4c(F)cccc4Cl)o3)CC2C)c1", "note": "(stereo not drawn)", "Potency": "inconclusive: 11.2 µM [inhibitor, single point]"}, {"smiles": "O=C(NCc1ccccc1F)c1ccc2c(c1)CN(C1CCSCC1)CCO2", "outcome": "inactive"}, {"smiles": "COc1ccc(CC(=O)NC2CCN(c3ccccc3)C2=O)c(Cl)c1", "note": "(stereo not drawn)", "Potency": "inconclusive: 7.94 µM [inhibitor, partial curve, poor fit]"}, {"smiles": "CC(C)CNC(=O)C1(CCO)CCN(Cc2ccccc2)C1", "note": "(stereo not drawn)", "Potency": "inconclusive: 7.94 µM [inhibitor, partial curve, poor fit]"}, {"smiles": "Cc1ncccc1C(=O)NC(CC(C)C)c1nnc2n1CCNCC2", "note": "(stereo not drawn)", "activity, negative = inhibition": "inactive: 2%"}, {"smiles": "CCC(CC)NC(=O)c1c(OCC2CC2)cc(=O)n2c1CCCCC2", "activity, negative = inhibition": "inactive: 72.7%"}, {"smiles": "O=C(Cc1ccc(Cl)cc1)NCC(c1cccs1)S(=O)(=O)c1ccc(F)cc1", "note": "(stereo not drawn)", "Potency": "inconclusive: 17.8 µM [inhibitor, single point]"}, {"smiles": "CCCOc1ccc(CN2C[C@@H](CO)[C@H](c3ccncc3)C2)cc1", "Potency": "inconclusive: 11.2 µM [inhibitor, single point]"}, {"smiles": "Cn1cnc(S(=O)(=O)N2CCC(C(=O)NCc3ccc(F)cc3)CC2)c1", "activity, negative = inhibition": "inactive: 2.23%"}, {"smiles": "Cc1cccc(CN2CC[C@@H]3OCC(=O)N(Cc4ccccc4)[C@H]3CC2)c1", "Potency": "inconclusive: 3.55 µM [inhibitor, single point]"}, {"smiles": "COc1cccc(S(=O)(=O)N2CC(Oc3ccccc3-c3noc(C)n3)C2)c1", "Potency": "inconclusive: 12.6 µM [inhibitor, single point]"}, {"smiles": "O=C(c1cccnc1)N1CCCC(n2cc(-c3nc(-c4ccccc4)no3)nn2)C1", "note": "(stereo not drawn)", "Potency": "inconclusive: 1.58 µM [inhibitor, single point]"}, {"smiles": "CCOc1ccc2c(n1)CCN(C(=O)c1cccc(OC)c1)C2", "activity, negative = inhibition": "inactive: 22.3%"}, {"smiles": "O=C(Cn1c(=O)n(-c2ccc(Cl)cc2)c(=O)c2oc3ccccc3c21)Nc1ccccc1", "Potency": "inconclusive: 17.8 µM [inhibitor, single point]"}, {"smiles": "CC1CCN(c2ncnc3c2nnn3C)CC1", "activity, negative = inhibition": "inactive: 55.9%"}, {"smiles": "COc1ccc(C2=CC(c3cccc(C)c3)n3nnnc3N2)cc1", "note": "(stereo not drawn)", "Potency": "inconclusive: 11.2 µM [inhibitor, single point]"}, {"smiles": "CCOC(=O)c1c(C)oc2nc(C)nc(NCCc3ccc(SC)cc3)c12", "Potency": "inconclusive: 6.31 µM [inhibitor, partial curve, poor fit]"}, {"smiles": "Cc1ccc(S(=O)(=O)c2nc(S(C)(=O)=O)sc2NCc2ccccc2)cc1", "Potency": "inconclusive: 12.6 µM [inhibitor, single point]"}, {"smiles": "CCCc1nnsc1C(=O)N[C@@H]1CCOC[C@H]1Oc1ccccn1", "activity, negative = inhibition": "inactive: 1.76%"}, {"smiles": "CCOC(=O)c1[nH]c2c(c1Cc1ccccc1OC)C(=O)CC(c1ccc(OCC)cc1)C2", "note": "(stereo not drawn)", "Potency": "inconclusive: 10 µM [inhibitor, single point]"}, {"smiles": "O=C(c1[nH]nc2c1CCc1ccccc1-2)N1CCC(c2noc(-c3ccncc3)n2)C1", "note": "(stereo not drawn)", "Potency": "inconclusive: 3.98 µM [inhibitor, single point]"}, {"smiles": "COc1cccc(C(=O)Nc2ccc3nc(N4CCC(C)CC4)cc(C)c3c2)c1", "Potency": "inconclusive: 10 µM [inhibitor, single point]"}, {"smiles": "Cc1ccc(-c2ncc(NC(=O)c3ccc(F)c(F)c3)cn2)cc1", "Potency": "inconclusive: 3.98 µM [inhibitor, single point]"}, {"smiles": "CNC(=O)C(C)Cn1ccnc1-c1cccc(CN(C)C)c1", "note": "(stereo not drawn)", "activity, negative = inhibition": "inactive: -1.42%"}, {"smiles": "Cc1ccccc1C(=O)N1CCCC(c2nn(-c3ccc(Cl)cc3)c(=O)[nH]2)C1", "note": "(stereo not drawn)", "Potency": "inconclusive: 7.08 µM [inhibitor, partial curve]"}, {"smiles": "CCN1C(=O)C(CC(=O)NCc2ccco2)Sc2ncccc21", "note": "(stereo not drawn)", "activity, negative = inhibition": "inactive: -13.5%"}, {"smiles": "CN1C(=O)CO[C@H]2CN(Cc3ncc[nH]3)C[C@H]21", "activity, negative = inhibition": "inactive: 5.19% [at 44.1 µM]"}, {"smiles": "O=C1c2cnc(-c3cccc(CO)c3)nc2OCCN1c1cccc(C(F)(F)F)c1", "Potency": "active: 14.1 µM"}, {"smiles": "CN1CCCN(C(=O)C2CCOCC2)c2ccccc21", "activity, negative = inhibition": "inactive: 15.9%"}, {"smiles": "O=C(Cn1ccn2nc(-c3ccccc3)c(CO)c2c1=O)Nc1ccc(C(F)(F)F)cc1", "activity, negative = inhibition": "inactive: 24.6%"}, {"smiles": "O=C1CCN(S(=O)(=O)c2ccccc2)CCCN(C(=O)C2CCCCC2)CCN1", "Potency": "inconclusive: 1.12 µM [inhibitor, partial curve, poor fit]"}, {"smiles": "CC1=C[C@@H](CN2CCN(c3ncccn3)CC2)[C@H](C(C)C)C[C@H]1Cc1nnc(-c2ccccc2F)o1", "Potency": "inconclusive: 1 µM [inhibitor, partial curve, poor fit]"}, {"smiles": "Cc1nnsc1C(=O)N[C@H]1CCN(C(=O)c2ccco2)[C@H](C(=O)N[C@@H](Cc2cccs2)C(N)=O)C1", "activity, negative = inhibition": "inactive: 0.434%"}, {"smiles": "COC(=O)c1ccc2nc(C[C@@H]3C[C@@H](C(C)C)[C@H](CNCc4ccccc4F)C=C3C)[nH]c2c1", "Potency": "active: 4.47 µM"}, {"smiles": "O=C(c1ccccc1C(F)(F)F)N1CCc2c(nc3cc[nH]n3c2=O)C1", "Potency": "inconclusive: 1 µM [inhibitor, partial curve, poor fit]"}, {"smiles": "O=C(NCC1CC1)c1cccc(OC2CN(Cc3cccc(F)c3F)C2)c1", "activity, negative = inhibition": "inactive: -20.9%"}, {"smiles": "CC(C)CC(N)c1nnc2n1CCNCC2", "note": "(stereo not drawn)", "activity, negative = inhibition": "inactive: 0.479%"}, {"smiles": "Cc1cc(C)cc(NC(=O)C2CCC(CNS(=O)(=O)c3ccc4c(c3)C(C)(C)C(=O)N4C)CC2)c1", "note": "(stereo not drawn)", "Potency": "inconclusive: 17.8 µM [inhibitor, single point]"}, {"smiles": "CCN1C(=O)CCN(Cc2cccc(OC)c2OC)CC12CCOCC2", "Potency": "inconclusive: 2.82 µM [inhibitor, single point]"}, {"smiles": "COc1ccc(CCNC(=O)c2c(C)oc3ncn(CC(C)C)c(=O)c23)cc1OC", "Potency": "inconclusive: 10 µM [inhibitor, single point]"}]}]}
